Experimental data as given in the supplement of paper PMC11417369.
± gives the standard deviation of the averaged measurements. The list shows a part of the results.

test system: PfAP2-EXP AP2 domain (GST-tagged); experiment: gcPBM binding intensity (ln(normalized median fluorescence intensity)); higher = stronger DNA binding
Outline: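 An Agilent 4 × 180k array carrying primer-extended double-stranded 36-bp intergenic genomic probes and negative controls received GST-tagged P. falciparum DNA-binding domains expressed in E. coli, about 25 μg on average, for 1 h. The binding buffer contained 1× PBS, 1% milk, 0.2 mg/ml BSA, 0.5% salmon testes DNA and 0.03% Triton X-100. Binding intensity is the top Masliner-normalised natural-log median intensity across replicate spots of either probe orientation, read after Alexa488 anti-GST antibody staining and a 488 nm scan.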

Row | Sequence | gcPBM binding intensity (ln)
1 | TTTTAAAAATTAAAAAAATTAAATGTAAAAAAATGA [CACACA_negctrl_site861] | 8.52 ± 0.53
2 | ATATATGTATATGTGTGTACATATATGTTTATTATT [XGTACX_site6043] | 8.43 ± 0.28
3 | TTTTTTTTTTTTTTTACACACAAATGTATACTATAT [CACACA_site1787] | 8.46 ± 0.43
4 | TATTAAATATTCATATGTACATATAGTTTATAAATT [XGTACX_site7455] | 8.52 ± 0.33
5 | AAAACGGATTCTTTATAAATAAATAAATAAATATAA [XGTACX_negctrl_site157] | 8.36 ± 0.42
6 | ATATATGTATGTTAGACACACATATTATAATATGTT [CACACA_site116] | 8.53 ± 0.42
7 | AATACATACACAAATACACACACAAATACATACACA [CACACA_site8134] | 8.68 ± 0.52
8 | TTTTTTGTTATGCGGGTGCATATAATAATGTGATGA | 8.76 ± 0.16
9 | TTATTTGTATCCATTTCACACATTTTATATAGTATC [CACACA_site5989] | 8.77 ± 0.45
10 | TATATGTTTTATAAATGTACATATACTTAAATATTT [XGTACX_site4753] | 8.49 ± 0.52
11 | TTATGTGCTTTAAAAGTGCATTTTTTTTTTTTTTTT | 8.68 ± 0.13
12 | TTTATCAAAAAAAAAAAAAAAAAAAAAAAAAATTGT [CACACA_negctrl_site176] | 7.88 ± 0.52
13 | ACTATTAAGAATAAAGAAATATGTAATTGTATTTAA [CACACA_negctrl_site516] | 8.22 ± 0.42
14 | AATACATAATAACGTTGTACAAAAATTATAATACAT [XGTACX_site6508] | 8.94 ± 0.42
15 | TATAAATAAATGTGTACACACATTAAAATCAAACGT [CACACA_site2340] | 8.96 ± 0.39
16 | ATAAATATAAAAAAATGTACATATAGTAATACATAC [XGTACX_site508] | 8.6 ± 0.3
17 | GACTTTTCATTTATAGTGCAAGTTTTTTTTTTTTTT [GTGCAC_site9698] | 8.43 ± 0.18
18 | ATAAGTATAAGAATCAGTACACAGTTTCTACATACT [XGTACX_site5834] | 8.53 ± 0.21
19 | GAAATAAAAAGAAATGCATGTAATTTTTTTTTTTTT [TGCATGCA_site928] | 8.61 ± 0.23
20 | TATATATCATTTAAAACACACAAAAAAAAAAGTTAT [CACACA_site6191] | 8.69 ± 0.53
21 | ATTAAAACCAATTAAAAAAAATTTATAATGGAAGCA [TGCATGCA_negctrl_site273] | 8.47 ± 0.16
22 | AATGACTAAATTTAAACACACAAGGGGAGTTTACTT [CACACA_site918] | 8.37 ± 0.43
23 | GAGATAAAATAAAACACACACATATATATATATAAT [CACACA_site5246] | 8.63 ± 0.47

Row | Sequence | gcPBM binding intensity (ln)
24 | TATTATTGTTGTTCATGTACACACTATAATAAAAGC [XGTACX_site8957] | 8.64 ± 0.4
25 | AATAAATAAGCACATACACACATACATACATACATA [CACACA_site6075] | 8.63 ± 0.4
26 | TTGTATTTTTAAATGACACACACATATATATATATA [CACACA_site8481] | 10.1 ± 0.38
27 | AAGTTATAAAAATAAAGTACAAAGTAGCTATTTTTT [XGTACX_site3144] | 8.36 ± 0.35
28 | TTTATTATCGTTCTCATACACACAAAATATACATAC [CACACA_site2642] | 8.79 ± 0.45
29 | TAGGCGTTTAATAAAAGTACCCACACATATATTATT [XGTACX_site1932] | 8.55 ± 0.38
30 | CATAAATTAATAGTCACACACGTATTTTTTATATAT [CACACA_site2526] | 8.46 ± 0.47
31 | AAATATATATGTGGGGGTACTAATAAAAAAACCCCT [XGTACX_site2657] | 8.86 ± 0.32
32 | ATTTAACAACTTCAAACACACAATATATATATATAT [CACACA_site2093] | 10.1 ± 0.18
33 | AATTCAAATATAAATACACACACATAGCTACAAAAT [CACACA_site9386] | 8.87 ± 0.52
34 | TGAAAAAAAAAAAAAAAAAAAAGAAAAAAAAAAAAA [CACACA_negctrl_site709] | 8.11 ± 0.22
35 | TTACACAAACAAATTATGGACACATAAGTAAAAGGA [CACACA_negctrl_site1622] | 9.01 ± 0.4
36 | TATAATTCATATGAAACACACATTTATTTTAATTAC [CACACA_site3686] | 8.45 ± 0.41
37 | TTATCCATAAAAAAGTGTACGCACTAAAATTGAAAA [XGTACX_site5460] | 8.69 ± 0.15
38 | GAAAAAAGAAAAAAAAGTACATATATTTAATAAGAC [XGTACX_site6912] | 8.93 ± 0.35
39 | GTTATTTATAGACACACACACATGCATGCACATATA [CACACA_site6204] | 10.2 ± 0.39
40 | TATAGGTATGTATGTACACACAAAAAATGGAATATA [CACACA_site7704] | 8.93 ± 0.39
41 | TATATATATATATATTGTACATAATGTATATATGTT [XGTACX_site3448] | 10 ± 0.35
42 | CACACCCACAGACACACACACACATATATATATATA [CACACA_site363] | 10 ± 0.099
43 | ATATATATATATATTTGTACATATATACATAAAATT [XGTACX_site359] | 10.1 ± 0.26
44 | GAAAAAGTTATAAATTGTACTAAATATTAAATATTG [XGTACX_site7890] | 8.2 ± 0.38
45 | TTTAAAATGGGACTTTGAAAAAAAAAAAAAAAAACA [TGCATGCA_negctrl_site111] | 8.24 ± 0.44
46 | CATATATATTTGTTCACACACACACCCAAAAAAAAA [CACACA_site2476] | 8.7 ± 0.49

Row | Sequence | gcPBM binding intensity (ln)
47 | CATATGTTCATCATAGCACACATATATAAATTACAA [CACACA_site9177] | 8.35 ± 0.22
48 | AAAAAAAAAAAAAGGTGTACATGCAAAATAAATTCT [XGTACX_site4592] | 9.14 ± 0.31
49 | AAATAAATAAGAAACGCATGCATATATAATATATAA [TGCATGCA_site326] | 9.67 ± 0.085
50 | CAAAGATATATAAACACACAAATATAACATATATAC [CACACA_site7395] | 8.72 ± 0.49
51 | TATGAATATCTATACACACACATATATATACTCACT [CACACA_site1597] | 8.55 ± 0.36
52 | TATGTATATTTTTTTGTGCACATATATATATATATA | 10.2 ± 0.26
53 | TACACTTGTAATTGCGTGCACGAAGGATATATATAT | 9.665 ± 0.092
54 | TATATTATTATATATTGTACTTTTTATATTTGCATT [XGTACX_site2978] | 8.62 ± 0.36
55 | TTTCTTATATAAGTGTACTAAAATATATATATGCAA [GTGCAC_negctrl_site546] | 8.63 ± 0.4
56 | ATTTTTTTTTTAAAATGTACATGAGAAATTGTATAT [XGTACX_site425] | 8.43 ± 0.37
57 | TAAAAAAATAAATATACACACATATATAAATATGTA [CACACA_site6641] | 8.11 ± 0.28
58 | TATATTATTAATTAAGCACACATTATTTTTATAATA [CACACA_site3982] | 8.22 ± 0.37
59 | TAACATAATATAGACACACACATGTACATATGCCAA [CACACA_site1842] | 8.65 ± 0.42
60 | TTATAAAAAAAAATAACACACAGACATAAGAATAAA [CACACA_site9383] | 8.68 ± 0.2
61 | TATATTAAGTATAAGACACACATATAGTAATAGAAA [CACACA_site5176] | 8.62 ± 0.45
62 | TACTATATCGATACCAGTACAGATTTATAAATAATA [XGTACX_site7491] | 8.47 ± 0.49
63 | AAATATAATAATAATTTAAGAATCTAATATTTTATA [CACACA_negctrl_site831] | 7.71 ± 0.41
64 | GGTATACATATTAAATGTACATATTTTAACAATAAG [XGTACX_site4868] | 8.51 ± 0.16
65 | AAGTGTCAAAGTTACACACACAAACTTGTCATTTTT [CACACA_site837] | 8.54 ± 0.35
66 | ATATAACTTTTCTTAACACACAAAAAACAAAAATAA [CACACA_site2380] | 8.65 ± 0.5
67 | ATATAATTATATAAATGTACTCATTCGTTATTTTGC [XGTACX_site6132] | 8.5 ± 0.41
68 | TTATTCAGAAAAAAAAAAAAAAAAAAAAAAAAAAAA [CACACA_negctrl_site1662] | 8.03 ± 0.34
69 | GAGAAGACATTACACAGTACCCAGGAAATCTACGGA [XGTACX_site1993] | 8.59 ± 0.54

Row | Sequence | gcPBM binding intensity (ln)
70 | TTTTTTTTAATTGTGATACGTATATTATTTTTTGAT [TGCATGCA_negctrl_site318] | 8.45 ± 0.49
71 | ATTTTTAATATTATTACACACACTAATAAAAAAAAA [CACACA_site8265] | 8.21 ± 0.33
72 | TATATATATGTGCAGTGTACTTTTTTTTTCTGTAAG [XGTACX_site3424] | 8.76 ± 0.18
73 | ATATGTAAAGAAAAGTAAACACTAATTTTAAACAAT [CACACA_negctrl_site11] | 8.62 ± 0.42
74 | ATATATATATATATATGTACTTAATATTTCTTATTT [XGTACX_site6206] | 10.1 ± 0.33
75 | TGACGAAAAAAAAGGGTGCTTAGTATAACTTTAAAG | 8.71 ± 0.52
76 | TTCTTTTTTAAACACACACACACAAGAAAATATATA [CACACA_site5680] | 8.84 ± 0.57
77 | TGATTAAAAGAGGGAAAAAAAAAAAAAAAAAAAAAA [CACACA_negctrl_site896] | 8.06 ± 0.43
78 | TCGACAAATGTATATACACACATTTGTAACATAAAT [CACACA_site560] | 8.41 ± 0.42
79 | TATAAAGGTGAAATTTGTACATAGTCATTTTTTAAT [XGTACX_site4811] | 8.51 ± 0.46
80 | ATACAACTAATAAGTAGTACAATATACATATATTAT [XGTACX_site7086] | 8.45 ± 0.38
81 | ATATGACTGTTCATTTGTACGTATAATTATATACGT [XGTACX_site3372] | 8.7 ± 0.32
82 | ATATATATATATATATATATATATATATATTATATA [XGTACX_negctrl_site48] | 9.94 ± 0.35
83 | AAATAATATATTCTATATAATAAATTATAAATATAA [GTGCAC_negctrl_site558] | 7.93 ± 0.51
84 | AAAAAAAATGAAAGGTGTACACATACAAACATAGAA [XGTACX_site3517] | 9.29 ± 0.16
85 | TTTTTTTTTTTTTTTTATTTATATATATATATATAT [CACACA_negctrl_site582] | 9.98 ± 0.23
86 | GTGCAAAATATTTTTACACACAAATTTTTACAACAG [CACACA_site3357] | 8.61 ± 0.18
87 | AAAAATAAATAAGACACACACAAAAAAAAAAAAAAA [CACACA_site1432] | 8.14 ± 0.61
88 | TTAATTATATCAGGACGTACTAATATAAATATATAT [XGTACX_site8909] | 8.48 ± 0.45
89 | GGGATATATTATTATACACACATATATAAAAGCTTT [CACACA_site2445] | 8.54 ± 0.49
